The values that follow come from article PMC10726135.

This is one part of the list. At the low end of the ranking, values are background and their order means little. Measured with an extract: partners may take part in the binding.

The assay has as its target T1, HNF4alpha8 (COS-7 nuclear extract) (UniProt P41235-5).
T1 sequence: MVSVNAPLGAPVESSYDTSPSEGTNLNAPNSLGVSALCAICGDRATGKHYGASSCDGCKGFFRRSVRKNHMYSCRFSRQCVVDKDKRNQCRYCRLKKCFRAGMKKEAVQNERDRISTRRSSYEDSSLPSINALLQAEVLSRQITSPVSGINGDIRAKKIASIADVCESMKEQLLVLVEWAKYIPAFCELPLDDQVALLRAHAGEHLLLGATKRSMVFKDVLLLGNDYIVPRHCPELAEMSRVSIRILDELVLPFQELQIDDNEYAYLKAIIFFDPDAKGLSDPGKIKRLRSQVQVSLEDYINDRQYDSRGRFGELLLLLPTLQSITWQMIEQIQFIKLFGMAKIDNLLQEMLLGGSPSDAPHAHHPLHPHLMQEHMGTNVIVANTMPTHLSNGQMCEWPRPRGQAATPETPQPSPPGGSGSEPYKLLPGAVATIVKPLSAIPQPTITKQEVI
In words: protein-binding microarray. Conditions: COS-7 nuclear extract on double-stranded Agilent 4x180k PBM; binding buffer, salt, pH and temperature not given; high values mean tight binding; double strand, one strand shown; sequences stand for … in …GCCTAGGGAGATTAGAGTATCGGTCGA
Take ACAAAGGTGAGCTTTTATCTTAAGTGAGGT: the binding signal (log2 normalized intensity) turned out to be 0.262. In the case of ACCGCACTGGAAGCAAGCCCTATTAGGCAT it was -1.46; in that of TTTTAAAAGTATACTATATTTGTCCCACAT, 0.612. Take CTTTGCCCCCCAAGTTGAAGCCATCCTCCC: the binding signal (log2 normalized intensity) was found to be 5.1. The value for CTCTGACCATGCCTATAAATTGCCTGGCTT was -1.22.

With TAAGAGCTATCAATGACCCATGTTTGCCCT, the binding signal (log2 normalized intensity) worked out at 3.57. On to CTGAGGCAAGTCTCTTTTAGGCTGTCAGCC, for which the binding signal (log2 normalized intensity) is -1.29. In the case of GGAGGAAAAAGAATGCCTCTTTCAAAACCT it was -1.18. The value for GGGGAGAGGGGGTTAAAGGTTATTTGCTCA was 5.15. The value for CACCCTGCTCCAGCCAGAGGCCTTATCTGG was -1.3; that for GGCATTAATTCTTCTTTGAAAGTTTGGTGG was 1.65; that for AATGGAAAGAATATGAACTTTGGAAATGCA was 2.22. Take GGGGAGGCAGGAGTGGGAGGCTGGGGCCTC: the binding signal (log2 normalized intensity) is -1.37. In the case of TACACTACAGGCAAGAGAATCAGAGAGATA, the binding signal (log2 normalized intensity) is -1.35. Turning to ACTCAGTCCTTTCAGGACACCTTCAGGGCT, the binding signal (log2 normalized intensity) is -1.42. Take ACCATGCTCTAGTCTTCCTGTCTCCATTGC: the binding signal (log2 normalized intensity) was 0.264. Regarding AGCACAATCAAAGCAATGGCTACCAAGGAG, the binding signal (log2 normalized intensity) was -1.3. In the case of ACTGTGATGGAACAGTGTAACACATGGCAT it was 0.238; in that of CAGGGTCAGTGCAATCACGCCTCAAATGAG, -1.37; in that of TAGCCACAATAATGTGATAAGAATTTTGTG, 0.208.

Take CAGTGCAAGGGACCTAGGTGAGCAGGCAGA: the binding signal (log2 normalized intensity) was -1.35. In the case of GTCCTGCCACATCCCCCACACCGAGATAGT it was 3.96; in that of GTGAGGCAATGCCTCGCCCTGCTTCGGCTC, -1.48; in that of TTGCCCAGTATTGATGTGAGGGTAGGAGCC, 0.48. On to AGACAAATGCTTTTGAACACCTGTCCCTAG, for which the binding signal (log2 normalized intensity) is -1.01. Regarding TGAGTAATTACTATAAATGCTCTGGCCTTT, the binding signal (log2 normalized intensity) is 1.66. In the case of CCTTATCTCGTTCTGATAGCAAGGAGAATT it was -0.791. The value for CTTACTTGGCATCATCAAACAAGATTTATC was -0.378. The value for AAGATAAAGGGACAGGGGTCATCAGGGGTC was 3.99.

Consider CCTTAGCTTATCGTCCCTTCCCTCTGTCTT, for which the binding signal (log2 normalized intensity) came out at 1.36.

As to AAAATCTTCAAACAACCCTTCGCTAGAGCA, the binding signal (log2 normalized intensity) was -1.32. GGGTCACGAGACGGTGTCCCTGGCCAATCC: the binding signal (log2 normalized intensity) is -1.18. In the case of AGGGAGTGGCAGCATTGTGCTGAAAAGACT it was -1.28. For the sequence GGAAATTGTCAGTGCCCTATACAGACCTTT, the binding signal (log2 normalized intensity) came to 3.45. Regarding ACCCGGGTACTGGAAACTGGGCAAGGTCCA, the binding signal (log2 normalized intensity) worked out at 4.17. The value for GCTCACATACCACTGACTAAAGCAAGTCAG was -1.26; that for ACCAGCTGCCTCTTGTGTTCACTCTAGGAA was -0.35. In the case of AGACCAAGGAGGCCTCTTCCCCAAACTAGG it was -1.24. As for GCCTGGAGGTACCTAGGGGACATTCTTTAG, the binding signal (log2 normalized intensity) is -0.678. In the case of AGGGTTCAAACTCCAGCTCTGATACTTTCT it was 3.93.

CTCATTGGCCAGTATCCGCCTTCACTCCCC: the binding signal (log2 normalized intensity) was 1.76. The value for TTTTTCCCCTGAAATATCATTATCTTGATC was 1.85; that for AGAGGAGGCCCACACCCCTGGGGAAGGCAG was -1.28. In the case of GGTGTGAGAGGGCAAAGGTCACAGCATTAG it was 7.08. On to GACACCGGGTGAAGGTTAAATAGCTCATTA, for which the binding signal (log2 normalized intensity) is -0.871. Take ATCACGTCTCTCTGGGGCCCTCTTCTGCAT: the binding signal (log2 normalized intensity) is -1.03. For the sequence GGCTGTGCATATTGGTTTACAGCACTTCAT, the binding signal (log2 normalized intensity) was found to be 0.0136. TTTGTCAAATGCTTCCAAGAATTTAAGAGA: the binding signal (log2 normalized intensity) was -0.862. As for CAGCCCTGCTCCCCGCCTTGGCCTCCCGGA, the binding signal (log2 normalized intensity) was found to be 2.9. In the case of CCAGGATCCAGTCCTCACCCAGAACTTTGA it was 2.75. The value for CCCTCCCCTCCCCCCACTCAAAATAGGAGT was 4.5; that for TCTCATGCCCTTTGCCTCCCTGCATTCCAT was 3.19. The value for TGGATTGCCTCCTAAGGCCTCCAGAAGGAA was -1.3; that for GCACAGTCAAAAATTTGTGTGTAACATTTG was 1.13; that for GGGAGTAAAGGTCACGCAGGCCACCTGGTG was 3.93.

On to TTCCTCTCCTGCCCTACTCCCTTAAATAAT, for which the binding signal (log2 normalized intensity) is 2.5. In the case of ATATTTGCTCTTATTGATTGCCTTTCATGT it was 1.24; in that of TCTGATGTCTGCTGAGAGATTCCTCTGCAC, -1.19. In the case of TCTAACATTTTTGACCTTCAGCATCTTCAA it was 3.81; in that of CCCAGGGTTAGAGGATGACCTTCCCTGCAG, 1.98; in that of GGGTGATAAGAACACAAAAGCCTCTTCAGG, -1.28. In the case of GCTGCTTCCCAGTTGCTCTGGAGTGCAGGT it was -1.2; in that of TTGGCCTATGGGAAAACAGGCTCAGCAAAG, -1.37; in that of CCCTCAGTACAGGGCGTCCTTGATAAGCAA, -1.23. As to GACAAAGGGCTCTCTCACCAGAAAAATGTA, the binding signal (log2 normalized intensity) was -1.45. In the case of TTAGTGTGCTCTGGGTCTGTCCTTTGTGTT it was 2.61. The value for GGGTCAGAGAAACCTGGCTGCGAGTCCCTG was -1.38.

GGTCAATAGTCCAGATACAGATGGCTAGAA: the binding signal (log2 normalized intensity) was found to be 0.704. In the case of CCCAGTCCAAATTCCCTTCCCCTCCTTAGG it was 2.3; in that of TCTCTAAGATAAGGATAATCTTCACTTGCC, -0.761. In the case of GAATCACTCACTGACCTCTTTTGGATTTTT it was 2.04. In the case of GCTCTCCTCCTAATCACTGCCCTTTGGTGC it was 3.24.
